The results in this text go back to patent US9907800B2, “Kinase inhibitors and method of treating cancer” (University Health Network, priority 2010, dated 2018).

By GI50 is commonly meant the concentration that inhibits growth by half.

Structures can show the parent of a compound that is named as a salt.

Assay [1] has as its system SKBR3 breast cancer cell line. Format: cell-based. The following applies: Homo sapiens, SK-BR-3, 120 h, read-out: GI50 Range.
The test system of assay [2] is HS578T breast cancer cell line. In kind it is cell-based. The conditions noted are these: Homo sapiens, Hs-578T, 120 h, read-out: GI50 Range.
The test system of assay [3] is BT474 breast cancer cell line. In kind it is cell-based. The following applies: Homo sapiens, BT-474, 120 h, read-out: GI50 Range.
The subject of assay [4] is PC-3 prostate cancer cell line. Format: cell-based. The conditions noted are these: 120 h, read-out: GI50 Range.
The subject of assay [5] is HCT116+/+ colon cancer cell line. In kind it is cell-based. The following applies: Homo sapiens, HCT-116, 120 h, read-out: GI50 Range.
The test system of assay [6] is HCT-15 colon cancer cell line. In kind it is cell-based. The following applies: Homo sapiens, HCT-15, 120 h, read-out: GI50 Range.
The test system of assay [7] is HCT116+/− colon cancer cell line. Format: cell-based. The conditions noted are these: Homo sapiens, HCT-116, 120 h, read-out: GI50 Range.
The test system of assay [8] is SK-OV-3 ovarian cancer cell line. In kind it is cell-based. The following applies: Homo sapiens, SK-OV-3, 120 h, read-out: GI50 Range.
The subject of assay [9] is SW 626 ovarian cancer cell line. Format: cell-based. The following applies: Homo sapiens, SW626, 120 h, read-out: GI50 Range.
Assay [10] has as its system T47 D breast cancer cell line. In kind it is cell-based. The following applies: Homo sapiens, T47D, 120 h, read-out: GI50 Range.
Assay [11] deals with 184A1 immortalized breast cell line. In kind it is cell-based. The following applies: 184A1, 120 h, read-out: GI50 Range.
Assay [12] concerns MCF-7 luminal breast cancer cell line. The following applies: 5 days, SRB, 2,2,2-trifluoroacetate salt, read-out: Cell Line GI50 Range MCF-7.
Assay [13] concerns HCC1954 basal breast cancer cell line. The conditions noted are these: 5 days, SRB, 2,2,2-trifluoroacetate salt, read-out: Cell Line GI50 Range HCC-1954.

With `COc1ccc2c(c1)[C@]1(CC1c1ccc3c(-c4ccc(N5CCN(C)CC5)nc4)n[nH]c3c1)C(=O)N2` (single isomer, unassigned) [Example A13, (1R*, 2S*)-5′-Methoxy-2-(3-(6-(4-methylpiperazin 1-yl)pyridin-3-yl)-1H-indazol-6-yl)spiro[cyclopropane-1,3′-indolin]-2′-one], the GI50 in assay [1], in assay [2], in assay [3], in assay [4], in [5] and in assay [6] was 1 to 50 µM each time. Moreover, the GI50 in assay [7], in assay [8], in [9] and in assay [10] was 1 to 50 µM each time.

Turning to `CN(C)Cc1ccc(/C=C/c2n[nH]c3cc(C4C[C@@]45C(=O)Nc4ccccc45)ccc23)cc1` (single isomer, unassigned) [Example A23, (1R*,2S*)-(E)-2-(3-(4-((dimethylamino)methyl)styryl)-1H-indazol-6-yl)spiro[cyclopropane-1,3′-indolin]-2′-one 2,2,2-trifluoroacetate], the GI50 in [1], in [3], in assay [11], in assay [4], in assay [5] and in assay [6] was 1 to 50 µM throughout. Also, the GI50 in assay [7] and in assay [8] was 1 to 50 µM throughout.

For `CN1CCc2ccc(/C=C/c3n[nH]c4cc([C@@H]5C[C@@]56C(=O)Nc5ccccc56)ccc34)cc2C1` [Example A65, (1R,2S)-2-(3-((E)-2-(2-methyl-1,2,3,4-tetrahydroisoquinolin-7-yl)vinyl)-1H-indazol-6-yl)spiro[cyclopropane-1,3′-indolin]-2′-one 2,2,2-trifluoroacetate salt], the concentration for 50% growth inhibition (GI50) is below 0.1 µM in [12] and 0.1 to 1 µM in [13].
